# Measured values reported in PubChem BioAssay AID1347073 (National Center for Advancing Translational Sciences (NCATS), 2019).
# In all, about 45,000 compounds went through this assay and about 200 (0.44%) were called active. Not shown: some 7% with an inconclusive outcome. Calls come from the whole dose curve; as a rule, active = well fitted activation curve with a large enough effect; inconclusive = small, poorly fitted or top-dose-only effect; inactive = no such curve, though single readings can be large or run the other way. This is one part of the list. Peptide text beside a SMILES is read from it. * marks the point of attachment. Boc = CC(C)(C)OC(=O)*; Bn = c1ccc(C*)cc1; NHNH2 = NN*
# Assay: qHTS of TDP-43 Inhibitors: NCGC Sytravon Library Screen; note: 0% is about no effect; nearly all actives have a fitted effect of over 55% in size
# Details: yeast TDP-43 toxicity rescue, BacTiter-Glo growth, 24 h; series mostly up to 46.1 µM; growth rescue (activation): at the top concentration
# In short: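 TDP-43-expressing yeast, pregrown in raffinose, seeded at OD600 0.02 in galactose medium with compound for 24 hr at 30 deg C. Growth read by BacTiter-Glo luminescence, so rescue of toxicity appears as activation.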
Compound,growth rescue (activation),Potency
O=C(O)C1CCN(C(=O)NC2CCCCC2)CC1,inactive: 20.4%,
COCC(=O)N1CCC(Oc2ccc(C(=O)NCc3cc(C)n(C)n3)cc2)CC1,inactive: 2.22%,
NNC(=O)[C@H](Cc1ccccc1)NC(=O)Nc1ccc2c(c1)OCCO2,inactive: -6.65%,
COc1ccccc1-n1c(SCC(=O)NC2CCS(=O)(=O)C2)nc2cc([N+](=O)[O-])ccc21 (configuration not stated),inactive: 8.73%,
CC(C)CC(NC(=O)C(COCc1ccccc1)NC(=O)OC(C)(C)C)C(=O)NN (configuration not stated) (Boc-Ser(Bn)-Leu-NHNH2; configuration not given here),inactive: 3.46%,
CCCc1cc(C(=O)Nc2cc(Cl)ccc2O)no1,inactive: 10.4%,
CCN1C(=O)c2cccc3c(S(=O)(=O)N4CCCC4C(=O)O)ccc1c23 (configuration not stated),inactive: 3.65%,
CCOC(=O)c1c(CN2CCOCC2)n(-c2ccccc2)c2cc(Br)c(O)c(CN(C)C)c12,inactive: 2.01%,
CCOC(=O)CNC(=O)N1CCCC(CCC(=O)NCc2ccc(F)c(F)c2)C1 (configuration not stated),inactive: 11.4%,
COc1cc(C(O)c2nc(/C=C/c3ccc(C(F)(F)F)cc3)cs2)ccc1F (configuration not stated),inactive: -67.1%,
Cc1nnc(NC(=O)C(C)Sc2nnc(-c3ccco3)n2C(C)C)s1 (configuration not stated),inactive: 6.45%,
COc1cc(C(=O)NNC(=O)c2ccco2)cc(OC)c1OC,inactive: -27.4%,
CC(C)CCOc1ccc(C(=O)NCC(c2ccco2)N(C)C)cc1 (configuration not stated),inactive: 6.72%,
Cc1ccc(C)n1-c1nnc(N2CCCC(C(=O)NCc3cccc(Cl)c3)C2)s1 (configuration not stated),inactive: 5.82%,
COc1ccc(C(NC(=O)C2CCN(CCOc3ccc(F)cc3)CC2)c2cccs2)cc1 (configuration not stated),inactive: -1.24%,
COc1ccc(CNC(=O)C2CCC(CNc3c(N4CCCCC4)c(=O)c3=O)CC2)cc1 (configuration not stated),inactive: -7.87%,
CSc1nc(-c2ccccc2)c(C#N)c(=O)n1C,inactive: 20.1%,
Cc1c(C2=CCN(S(=O)(=O)c3ccc(Br)cc3)CC2)c2ccccc2n1C,inactive: -0.538%,
COc1ccc(CCNC(=O)C23CCC(C)(C(=O)C2=O)C3(C)C)cc1OC (configuration not stated),inactive: 1.89%,
Cc1ccc(NC(=O)NC(=O)CSc2n[nH]c(N)n2)c(C)c1,inactive: -7.66%,
O=[N+]([O-])c1cc(S(=O)(=O)N2CCCC2)ccc1NCCc1ccccc1,inactive: 13.9%,
Cc1nn(CC(=O)Nc2ccc3c(c2)oc2ccccc23)c(=O)c2ccccc12,inactive: 22.6%,
C(=C\c1ccco1)/C1=NN(c2ccccc2)C(c2ccco2)C1 (configuration not stated),inactive: -22.6%,

Compound,growth rescue (activation),Potency
CC(C)Oc1ccc(F)cc1-c1cc(C(=O)Nc2ccccc2)[nH]n1,inactive: 17.1%,
CCOc1ccc(/C=N/Nc2ccc(Cl)nn2)c(O)c1,inactive: -1.47%,
COc1cc(C(=O)Nc2ccc(S(=O)(=O)Nc3cc(C)on3)cc2)cc(OC)c1OC,inactive: -5.16%,
Cc1c(Br)cccc1NC(=O)C1(C)CCN1CCc1ccccc1 (configuration not stated),inactive: 1.27%,
CC1=C(C)C(c2ccccc2)NC(=S)N1 (configuration not stated),inactive: 16.1%,
Cc1ccc(C(=O)N2CCN(S(C)(=O)=O)C2)cc1,inactive: 12.5%,
COc1cccc(N2CCN(C(=O)c3ccc(CS(=O)c4ccc(C)cc4)o3)CC2)c1 (configuration not stated),inactive: -15.2%,
COc1ccccc1N1CN(CCc2ccccc2)CNC1=S,inactive: 5.96%,
CC(C)n1c(SCC(=O)NC2CCCCC2)nnc1-c1ccco1,inactive: -10.8%,
O=C(CN1CCN(S(=O)(=O)c2ccccc2)CC1)Nc1ccc([N+](=O)[O-])cc1,inactive: 21.1%,
CCOc1ccc(NC(=O)c2ccccc2O)cc1,inactive: -41.8%,
COCC(=O)OCC(=O)Nc1ccc(Cl)cc1[N+](=O)[O-],inactive: 27%,
CCCSc1nc2sc3c(c2c(=O)n1Cc1ccccc1)CC(C)(CC)OC3 (configuration not stated),inactive: 3.31%,
COc1ccc(NC(=O)CSc2cc(C)nc3c(-c4ccccc4)cnn23)cc1,inactive: 6.09%,
COc1ccc(-n2nnc3c(SCC(=O)c4ccccc4)ncnc32)cc1,inactive: 20.4%,
CSc1cccc(NC(=O)c2ccc(CN3CCc4ccccc4C3)cc2)c1,inactive: 2.08%,
CCOc1ccc(S(=O)(=O)Nc2ccc(OC)nc2)cc1,inactive: -3.84%,
CC(NC(=O)C(c1ccccc1)c1ccccc1)c1ccc(S(N)(=O)=O)cc1 (configuration not stated),inactive: 5.97%,
CN(C)CCCn1c(=S)[nH]c2sc3c(c2c1=O)CCCC3,inactive: 8.43%,
COc1cc(OC)cc(C(=O)NCC(=O)OCC(=O)Nc2ccc(C)c(S(=O)(=O)N3CCOCC3)c2)c1,inactive: 26.8%,
CC(NC(=O)Cn1cc(C(F)(F)F)cc(Cl)c1=O)c1ccccc1 (configuration not stated),inactive: -7.36%,
O=C(COC(=O)/C=C/c1cccc(C(F)(F)F)c1)NCc1ccc(F)cc1,inactive: 4.69%,
N#Cc1cc(O)c(-n2nnc3ccccc32)cc1C#N,inactive: 17.8%,

Compound,growth rescue (activation),Potency
CN(CC(=O)Nc1c(F)cccc1F)Cc1cccs1,inactive: 1.82%,
CC1(C)C(=O)Nc2ccccc2N1C(=O)CSc1nnc2c(Cl)cc(Cl)cn12,inactive: 2.12%,
S=c1[nH]ccn1-c1cccc(Cl)c1,inactive: 13%,
CN(C)c1ccc(NC(=O)CSc2n[nH]c(-c3ccncc3)n2)cc1,inactive: 3.86%,
O=C(Cn1cnc2ccccc21)N/N=C/C(Br)=C/c1ccccc1,inactive: 12.7%,
Cc1ccc(-c2nn(C)c(=O)c3ccccc23)cc1CN1CCCCC1,inactive: -4.56%,
COc1ccc(CNS(=O)(=O)NCc2ccccc2)cc1,inactive: -13.7%,
CCN(CC)P(=O)(Nc1ccc([N+](=O)[O-])cc1)c1c(C)nn(CCC#N)c1NC(=O)c1ccc(Cl)cc1 (configuration not stated),inactive: 4.46%,
O=C(CCN1C(=O)c2ccccc2C1=O)NCc1cccc(Cl)c1,inactive: 22.5%,
CCSc1nsc(NC(=O)Nc2ccccc2Cl)n1,inactive: 8.43%,
CCOC(=O)C1(C)CCCCN1C(=O)c1ccc(F)c(C)c1 (configuration not stated),inactive: 11.9%,
COc1ccc(CCCc2nnc(SCC(=O)Nc3ccc(OC)cc3)o2)cc1,,inactive
Cc1onc(-c2c(F)cccc2Cl)c1C(=O)OCC(=O)N1C(C)CCCC1C (configuration not stated),inactive: 11.1%,
CC(=O)c1c(C)[nH]c(C(=O)Nc2cccc(S(=O)(=O)N3CCOCC3)c2)c1C,inactive: -11.1%,
CCc1ccc2nc(NC(=O)CCCc3cccs3)sc2c1,inactive: -3.69%,
Cc1ccc(C(=O)COC(=O)C(C)N2C(=O)C3C4CCC(C4)C3C2=O)cc1C (configuration not stated),inactive: 17%,
COCCNC(=O)c1cc(S(=O)(=O)N(C)c2ccccc2OC)ccc1C,inactive: 27.1%,
COc1ccc(CCNC(=O)c2ccc(OC)c(OC)c2)cc1OC,inactive: -14.6%,
CCOCCCN(C(=O)c1snc(C(N)=O)c1N)C(C(=O)NC1CCCC1)c1ccc(O)cc1 (configuration not stated),inactive: 0.135%,
CN(C)C(CNC(=O)c1ccc(NC(=O)CC#N)cc1)c1ccccc1 (configuration not stated),inactive: 16.3%,
O=C(NC1CC1)C1CCN(C2CCN(C(=O)/C=C/c3cccc(F)c3F)CC2)CC1,inactive: 7.59%,
